# Results published in the RNAGym collection of RNA variant scans (doi:10.7554/elife.90254).
# The source gives no read counts; variants with many changes may rest on few reads.
# B1: LINE1-full (parent)
# chain: UACGUAGGUGGUUUUCCCCUGAUAGUGCUAAGGGGGCCUGGAAGUUUGGACUGGGCAGAGCUCAACACAGCGUGGCAAAGUGGCUGUGGCUAGACUGCCUCUCUGGAUUCCUCGUCACUCAGCAGGGCAUCUCUGAGAGAAAUGCC
# Variants of: B1
# Experiment: self-cleavage, relative activity (ratio to wild type); higher = more cleavage; in vitro, sequencing; the parent is a self-cleaving ribozyme
row,Variant,self-cleavage
1,A64U A121U A138G,0.65
2,U15C U23C A59G C66U A140G,0.08
3,U12C C17A U46C,1.02
4,A64U U115C C146A,0.61
5,A65G A129G U132C,0.77
6,A57G C116U G122A A138G,0.88
7,U26C A117G U132C A141G,1.25
8,G25U U52G A59U,0.71
9,U26A C38U U73C,1.72
10,A42G A65G A79G,0.21
11,C61U U102C U115C A138G,0.05
12,A43G U45C A65G C101U,0.17
13,U9A A30G A31G U45A C66A A78G,0
14,G7A G21A U132G,1.9
15,G83A U91C A92G C145U,0.1
16,A30G A59U U85C,0.14
17,U14C A129U A142G,1.29
18,U26G U96C U108C C116A,0.39
19,A94U U96C U104A A141G,0
20,U73A A121G A140G,1.93
21,U20A U73C C118U A138U,1.56
22,U13C A57U U115C,0
23,C19U A129G U132C,1.58
24,A31C A65G U85A A140G,0

row,Variant,self-cleavage
1,A64G A78G A79G A117U,0.39
2,A43G A77G U108C,0
3,G10A U12A U14C U52A,0.62
4,A69U A124G U130C U134C,0
5,A6G G32A U112C G114A,0.84
6,A24C U46A U47C A59G A142G,0
7,A69G A94G U130C,0
8,A69G A78G U91A U102A,0.15
9,U13C U119C U132C,1.77
10,U96A U115C G127A,0.05
11,U13A U46A C68U C99U,0.03
12,A31U A79U A117U A124G,1.88
13,U29C U87C U143C,0
14,U12C U73C A142G,1.38
15,A78G U91A A140U,0.96
16,U9A U20C A140G,0
17,A43G C66U A69G U73A U115C U130C,0.05
18,U47C A50U A67G,0.52
19,A64U A77U A124G A142G,0.21
20,U46C A57G A67U U143C,0
21,A2G C3G A42G A69U U73C,0.23
22,A30G G97A U132C,0.51
23,U26A U102C A121G,0
24,U26A C66U U73A A78G U119A A124G A129G,0.03

row,Variant,self-cleavage
1,A2G U12G A42G,0.87
2,U5C A78G U87C U96C A141G,0
3,G34A U46C U102C U134C,2.27
4,U13C G55C U81G,0.09
5,U26C U52C G126A A129G,1.43
6,A2U U13C U39A U130C,0.66
7,A42G G97A U130C,0.12
8,U13C A64U U115A,0.81
9,U23C U102A A129G,2.57
10,A64U A78G A138G,0.28
11,U13C A43G A107U U132C U143A,0
12,A92U U115A A142G,0.56
13,A42C G88A A107G U134C,0.07
14,U13C U26G U45C,1.08
15,U14C A59U A65U G74A U81G,0.08
16,U62C A67G A121U,0
17,G8U U91G U100A A136U A142G,0.09
18,A57G A77U U81C G83A A138U,1.2
19,A50G A67G A77G C101U A141G,1.84
20,U23A U87A G89C G137A A140G,0.06
21,U45A A59G A67G U130C A138G A140G,0
22,U47A A65G U85A,0.01
23,A42G U119G A141G,0.79
24,U109C U112C A117G,1.44

row,Variant,self-cleavage
1,A22G U62C A64G U108C,0
2,A30G A42G A78U U132C,1.51
3,U23C A24G U45A A79G,0
4,G4A A57C U115A A129U,0.18
5,A69U A79G C118A,0.05
6,A78G G93A A138U,0
7,U45G U119G U132C A142G,1.41
8,A65C U73A U104A U119C,0.02
9,C66U U96C A136G,0.04
10,U13C A43G G74A A78G,0.93
11,U62A A107G U115C,0
12,U39C A121G A140G,1.67
13,U15C C131G A138G,1.53
14,C38U U102A A117U U134C,1.65
15,A94G U104C U109C A121U,0
16,U9A G27A U62C A64U,0.11
17,U23G A24G U47C C116U,1.33
18,C19U U46C G54C A117C,1.38
19,U13C G58U A129G,0.11
20,U47C U52G A94G A141G,0.66
21,U130C A136G A141G,2.03
22,A22G A79G U130A,2.12
23,U47C A64U A117G A140U,1.01
24,U12C A22C G34A U81A A124G A141G,2.09

row,Variant,self-cleavage
1,C3U U119C A124U C131A A140G,0.95
2,C56U A78G A124G,0.13
3,U14C U23C A79U,2.13
4,U13G U26C A124G,0.46
5,U26C A42G U85A A136G,0
6,U9C U62C U85C,0
7,U13C U102C U115A U119C,0.77
8,G49A U130C A138U,0.76
9,U1A U46A A107G,0.73
10,A2G U104C U130A A138U,1.72
11,U5A A31U A59U A124U,0.69
12,U14C A22U A57G G89U A129U A140G,0.07
13,G54U A59U A69U U87A U96A A141G,0.01
14,C56U A77G U87A U104C,0.03
15,G58A G82U U119C A141G A142U,0.05
16,A94G U119C U143G,0.63
17,A79G U96A A136G,0.08
18,U15A U81A U132A,1.63
19,U20A U52C A57G A77G,2.45
20,A79U G83A A107G A121U,1.64
21,G72A A79G U87C,0.09
22,U14C A94G C101U,0.45
23,G35A U45C U85C A141G,0
24,U39A C66U A78G,0.06

row,Variant,self-cleavage
1,U13A U26A G74A A140G,0.16
2,U26C U112C G137U,1.51
3,U52C A67C A138C,0
4,G25C A65G G70A A79U A117G,0.02
5,U46G U91A A121G,0.54
6,C17U C18A U73C,0.84
7,C56A U134C A140U,0.02
8,U12A U108C U115C,1.53
9,C19U U47C A64C A124G,0.28
10,A6G U12G A24G A79G,0.74
11,G49A A50G A64C G83C U100C U115C A136U A138G A142U,0
12,A6G U73A U91A A138G,0.89
13,G32A A59G U134A,0.01
14,U104G A142G U143A,1.87
15,G74A U91C U134C,0.44
16,G60A U102A U108C U115C C120U C128A A142G,0
17,U15C U81A U91C U102C,2.23
18,C38U G60A U115A,0.01
19,U26C U87A U104C,0.14
20,A69G A77G A141G,0.92
21,A64G U115A A140G,0.21
22,U12A U29C G72A U73C C95A U115A,0.06
23,G4A U14C U15C C84U,0.12
24,A31U G83A A92U A129U A138U,0.53

row,Variant,self-cleavage
1,A22G U52A U115A,1.09
2,A69U U81C U115A,0
3,U9A A22G U26A A138G,0.81
4,G34A U132C A136G U143C,0
5,U102A C111U U134A,1.34
6,U12G A57U A64G A142G,0.34
7,U39C A43G A77U U132C A141G,1.02
8,U13C U14A U15A U119C U130C,2.16
9,A30G U52A A138G,0
10,U39C U47C U62G,0
11,G32C G82A U104A U108C,1.63
12,U1C C99U U134A A138G,0.58
13,A2G C71U A92G A136G,0.63
14,U5A A64U A79C U143C,0.9
15,U1C A92G U132C,0
16,U14C A22G U26G,0.53
17,U46C G82A U112C A142G U143G,2.6
18,A50G U91C U134C,0.18
19,U9C U26C A136G,0.82
20,U39G C63U U108C,0.2
21,U47G U100A C111G,0.77
22,U45C A65G A140G,0
23,U9A A69G A124G,0.32
